In the supplement of paper PMC9446081:
About 220 (0.56%) of roughly 39,000 compounds showed activity. This is one part of the list.
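Also: static incubation at 37 °C against the wild-type strain, values averaged over two biological replicates.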

The molecules below were run on Escherichia coli K-12 BW25113 (assay: relative growth (OD600 normalised to plate interquartile mean) (fraction); higher = less growth inhibition, active = 0.2 or less). Conditions: 50 µM; LB; incubation time: overnight (16-24 h).
For `CC(=O)NCCCC[C@@H]1NC(=O)[C@@H]2C[C@H](C(=O)NCCCC[N+](C)(C)C)[C@H](c3cccc(OCCO)c3)N2C1=O`, the relative growth was inactive: 0.965.
`CC(=O)OCC[N+](C)(C)C` was tested, and the relative growth was inactive: 1.01.
With `C[C@@H]1CN([C@H](C)CO)C(=O)Cc2cc(NS(=O)(=O)c3cccs3)ccc2O[C@H]1CN(C)S(=O)(=O)c1ccccc1` the relative growth was inactive: 0.998.
With `COCC#Cc1ccc([C@H]2[C@@H](CO)N3C(=O)CN(C(=O)CN4CCOCC4)C[C@H]23)cc1` the relative growth was inactive: 0.999.
In the case of `C[C@H]1CCCCO[C@H](CN(C)C(=O)Nc2ccccc2)[C@@H](C)CN([C@@H](C)CO)C(=O)c2cc(NS(=O)(=O)c3ccc(F)cc3)ccc2O1`, the relative growth is reported as inactive: 1.01.
In the case of `Cc1ccc(S(=O)(=O)N(C)C[C@H]2Oc3c(NC(=O)NC(C)C)cccc3C(=O)N([C@@H](C)CO)C[C@H]2C)cc1`, the relative growth is reported as inactive: 0.992.
For `C[C@@H]1CN([C@H](C)CO)C(=O)c2cccc(NC(=O)NC3CCCCC3)c2O[C@H]1CN(C)C(=O)Nc1ccc(C(F)(F)F)cc1`, the relative growth was inactive: 0.72.
In the case of `C[C@@H]1CN([C@@H](C)CO)S(=O)(=O)c2ccc(-c3cncnc3)cc2O[C@@H]1CN(C)C(=O)Cc1ccncc1`, the relative growth is reported as inactive: 1.
For `COc1ccc(CNC(=O)c2cc3c(c(-c4cccc(-c5ccc(C#N)cc5)c4)n2)[C@@H](CCO)N([S@](=O)C(C)(C)C)C3)cc1`, the relative growth was inactive: 1.01.
In the case of `C[C@@H]1CCCCO[C@H](CN(C)C(=O)Nc2ccc(C(F)(F)F)cc2)[C@@H](C)CN([C@H](C)CO)C(=O)c2cc(NS(C)(=O)=O)ccc2O1`, the relative growth is reported as inactive: 1.02.
With `Cc1ccc(S(=O)(=O)Nc2ccc3c(c2)C(=O)N([C@H](C)CO)C[C@@H](C)[C@H](CN(C)C(=O)NC(C)C)O3)cc1` the relative growth was inactive: 0.984.
With `C[C@@H]1CN([C@@H](C)CO)C(=O)c2cc(NS(=O)(=O)c3cccs3)ccc2O[C@@H](C)CCCCO[C@@H]1CN(C)S(=O)(=O)c1cn(C)cn1` the relative growth was inactive: 0.991.
With `C[C@@H]1CN([C@H](C)CO)C(=O)CCCn2cc(nn2)CO[C@@H]1CN(C)S(=O)(=O)c1ccc2ccccc2c1` the relative growth was inactive: 0.992.
In the case of `COc1ccc(CN(C)C[C@@H]2Oc3ccc(NS(=O)(=O)c4c(C)noc4C)cc3CC(=O)N([C@@H](C)CO)C[C@@H]2C)cc1`, the relative growth is reported as inactive: 0.994.
In the case of `CC(C)(C)[S@](=O)N1Cc2cc(C(=O)NCCN3CCCCC3)nc(-c3cccc(-c4ccc(C#N)cc4)c3)c2[C@@H]1CCO`, the relative growth is reported as inactive: 1.01.
With `C[C@H](CO)N1C[C@H](C)[C@H](CN(C)Cc2ccc(C(=O)O)cc2)OCCCC[C@H](C)Oc2ccc(NC(=O)Cc3ccccc3)cc2C1=O` the relative growth was inactive: 1.02.
For `C[C@H](CO)N1C[C@H](C)[C@H](CN(C)Cc2ccc(C(F)(F)F)cc2)Oc2c(NC(=O)Nc3ccccc3)cccc2C1=O`, the relative growth was inactive: 1.03.
With `COCC#Cc1ccc2c(c1)O[C@H](CN(C)C(=O)c1ccccc1F)[C@H](C)CN([C@H](C)CO)S2(=O)=O` the relative growth was inactive: 1.03.
For `CC1(C)CCC2=C(O1)c1ccccc1C(=O)C2=O` [beta-LAPACHONE], the relative growth was inactive: 1.14.
`CO[C@H]1CN(C)C(=O)c2cc(NC(=O)C3CC3)ccc2OC[C@@H](C)N(C(=O)C2CCOCC2)C[C@H]1C` was tested, and the relative growth was inactive: 1.02.
`C[C@H]1CCCCO[C@@H](CN(C)S(=O)(=O)c2ccc(F)cc2)[C@@H](C)CN([C@@H](C)CO)C(=O)c2cc(NC(=O)Nc3ccc(F)cc3)ccc2O1` was tested, and the relative growth was inactive: 1.05.
`C[C@H]1CCCCO[C@H](CN(C)S(=O)(=O)c2ccccc2)[C@@H](C)CN([C@@H](C)CO)C(=O)c2cc(NC(=O)Nc3ccc4c(c3)OCO4)ccc2O1` was tested, and the relative growth was inactive: 1.03.
For `C[C@@H]1CCCCO[C@H](CN(C)C(=O)c2ccccc2)[C@@H](C)CN([C@H](C)CO)C(=O)c2cc(NC(=O)Nc3ccc(F)cc3)ccc2O1`, the relative growth was inactive: 1.02.
`CC(=O)Oc1ccc(O)cc1` was tested, and the relative growth was inactive: 0.927.
In the case of `C[C@@H]1CCCCO[C@@H](CN(C)S(=O)(=O)c2ccccc2)[C@H](C)CN([C@H](C)CO)C(=O)c2cc(NC(=O)C3CCCCC3)ccc2O1`, the relative growth is reported as inactive: 0.991.
With `C[C@@H]1CN([C@H](C)CO)C(=O)Cc2cc(NC(=O)Cc3ccccc3)ccc2O[C@H]1CN(C)Cc1ccc(Oc2ccccc2)cc1` the relative growth was inactive: 0.984.
With `Cc1ccc(S(=O)(=O)N(C)C[C@@H]2Oc3ccc(NC(=O)C4CC4)cc3CC(=O)N([C@@H](C)CO)C[C@H]2C)cc1` the relative growth was inactive: 1.02.
For `C[C@@H]1CCCCO[C@H](CN(C)C(=O)Nc2cccc3ccccc23)[C@H](C)CN([C@@H](C)CO)C(=O)c2cc(NC(=O)Nc3ccccc3)ccc2O1`, the relative growth was inactive: 1.03.
For `N[C@H]1CC[C@@H](CCn2cc(-c3ccccn3)nn2)O[C@H]1CO`, the relative growth was inactive: 1.02.
With `C[C@@H]1CN([C@@H](C)CO)C(=O)c2cc(C#CC3(O)CCCC3)cnc2O[C@H]1CN(C)S(C)(=O)=O` the relative growth was inactive: 1.02.
With `NS(=O)(=O)c1ccc(N2CCCC2=O)cc1` the relative growth was inactive: 1.04.
For `COc1ccc(NC(=O)Nc2ccc3c(c2)CC(=O)N([C@H](C)CO)C[C@H](C)[C@H](CN(C)S(C)(=O)=O)O3)cc1`, the relative growth was inactive: 0.997.
In the case of `C[C@H](CO)N1C[C@H](C)[C@@H](CN(C)S(=O)(=O)c2ccccc2)Oc2ccc(NS(=O)(=O)c3cn(C)cn3)cc2CC1=O`, the relative growth is reported as inactive: 1.01.
With `C[C@@H]1CN([C@@H](C)CO)C(=O)c2cc(C#Cc3ccc(F)cc3)cnc2O[C@@H]1CN(C)Cc1ccccn1` the relative growth was inactive: 0.995.
For `c1nc2c(c(N3CCOCC3)n1)CCNCC2`, the relative growth was inactive: 1.05.
For `Cc1ccc2nc(CN)[nH]c2c1`, the relative growth was inactive: 0.978.
In the case of `C[C@@H]1CN([C@@H](C)CO)C(=O)c2cc(NC(=O)CCCCCC(=O)Nc3ccccc3N)ccc2O[C@H]1CN(C)Cc1ccccc1`, the relative growth is reported as inactive: 0.984.
With `C[C@H](CO)N1C[C@H](C)[C@@H](CN(C)Cc2ccncc2)Oc2c(NC(=O)C3CCOCC3)cccc2C1=O` the relative growth was inactive: 1.02.
With `C[C@@H]1CN([C@@H](C)CO)C(=O)c2cccc(NC(=O)C3CCOCC3)c2O[C@H]1CN(C)Cc1ccccc1` the relative growth was inactive: 0.994.
